Assay results as given in the supplement of paper PMC9513381.
Recombinant human monoclonal antibodies (heavy:light variable regions). ELISA EC50 on the named antigen, from 10 µg/ml down; IC50 / IC90 against spike pseudovirus on 293T-ACE2 cells, 48 h; lower = stronger. Calls: IC50 above 1,000 ng/ml = non-neutralizing; EC50 above 1,000 ng/ml = non-binder. The source prints 1000 for neutralization that was not reached; it is given as >1000 ng/ml. Only binders of the Wuhan-Hu-1 domain have neutralization values.

B1: B2058 (protein)
chain 1: EVQLVESGGGLIQPGGSLRLSCAASGLTVSSNYMSWVRQAPGKGLEWVSVIYPGGSTFYADSVKGRFTISRDNSKNTLYLQLNSLRADDTAVYFCARGDGYTDYYYGLDVWGQGTTVTVSS
chain 2: DIQLTQSPSSLSASVGDRVTITCRASQSISSYLNWYQQKPGKAPKLLIYAASSLQSGVPSRFSGSGSGTDFTLTISSLQPEDFATYYCQQRGFGQGTKVEIK
B2: B2059 (protein)
chain 1: QVQLQESGPGLVKPSQTLSLTCTVSGDSISRGGFYWNWIRQHPGKGLEWIGNIYYSGSTYYNPSLKSRVTISVDTSKNQFSLKLNSVTAADTAVYYCARDYGGNAQQFSFWGQGTLVTVSS
chain 2: IRMTQSPSSLSASVGDRVTITCQASQDINNYLNWYQQKPGKAPKLLIYDASNLETGVPSRFTGSGSGTDFTFTISSLQPEDIATYYCQHYHNFPLTFGGGTKVEIK
B3: B2060 (protein)
chain 1: QVQLVQSGAEVKKPGASVKVSCKASGNTFSVYYIHWVRQAPGQGLEWMGIFNPSGGSTTYAQKFQGRVTMTRDTSTSTVYMELSSLRSDDTAVYYCARGGLVPATREPFDIWGQGTMVTVSS
chain 2: DIQMTQSPSTLSASVGDRVTITCRASQSISYWLAWYQQKPGKAPKLLIYKASSLESGVPSRFSGSGSGTEFTLTISSLQPDDFATYFCQQYNSFPWTFGQGTKVEIK
B4: B2061 (protein)
chain 1: QVQLVESGGGVVQPGRSLRLSCAASGFTFSSYGMHWVRQAPGKGLEWVAVIWYDGSGKHYADSAKGRFTISRDNSKNTLYLQMNSLRAEDTAVYYCARDESGSYPVSWFDPWGQGTLVTVSS
chain 2: DIQMTQSPSSLSASVGDRVTITCRASQSIGIYLNWYQQRPGKGPNLLIYAASSLQSGVPSRFSGSGSGTEFTLTISSLQPEDFATYYCQQSYNTPPWTFGQGTKVEIK
B5: B2063 (protein)
chain 1: EVQLVQSGAEVKKPGESLRISCKGSGYPFTTFWITWVRQRPGKGLEWMGRIDPSDSETDYSPSFQGHVTISTDKSINTAYLHWSSLKASDTAMYYCATAVSPGTGWFAPWGQGTLVTVSS
chain 2: SYVLTQPPSVSVAPGKTARITCGGDKIGSKSVHWYQQKPGQAPVLVIYYDSDRPSGIPERFSGSNSGNTATLTISRVEAGDEADYYCQVWDSDSAVFGTGTKVSVL
B6: B2064 (protein)
chain 1: QVQLVQSGAEVKKPGSSVNVSCKASGGTLNIYTFSWVRQAPGQGLEWVGTIVPLVGKANYPHKFQGRVTITADKSTSTVNMELSSLRSEDTAVYYCASEVLDNLRDGYNFWGQGTLVTVSS
chain 2: DIQMTQSPSSLSASVGDRVTITCRASQSVSSYLNWYQQKPGKAPKLLIYAVSSLQSGVPSRFSGSGSGTDFTLTISSLQPEDFATYYCQQTYNTLTFGGGTKVEIK
B7: B2065 (protein)
chain 1: EVQLVESGGGLAQPGGSLRLSCGGSGFTFGSHDMHWVRQATGKGLEWVAAITTAGDTYYSGSAKGRFTISRDNAKNSFYLQMNSLRGEDTAVYYCAFVSWNRYCSRSSCHGLGVWGQGTTVTVSS
chain 2: SYELTQSLSVSVALGQTATITCGGDNLRNRNVHWYQQRPGQAPVLILYRDYNRPSGIPERFSGSNSGNTATLTISRAQAGDEADYYCQVWDSDTGVVFGGGTKLTVL

What follows are binders tested against SARS-CoV-2 Wuhan-Hu-1 spike pseudovirus (assay: pseudovirus neutralization IC50; higher = weaker neutralization).
Experimental: (§1)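 Single-round luciferase reporter pseudovirus mixed with antibody dilutions and put on 293T-ACE2 cells for 48 h; signal relative to no-antibody wells, four-parameter fit.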

Binder | pseudovirus neutralization IC50
B1 | 0.00634 µg/mL
B2 | > 1 µg/mL
B3 | > 1 µg/mL
B4 | 0.058 µg/mL
B5 | 0.162 µg/mL
B6 | 0.0127 µg/mL
B7 | 0.00176 µg/mL

What follows are binders tested against SARS-CoV-2 Wuhan-Hu-1 spike pseudovirus (assay: pseudovirus neutralization IC90; higher = weaker neutralization).
Experimental: as §1

Binder | pseudovirus neutralization IC90
B1 | 0.0944 µg/mL
B2 | > 1 µg/mL
B3 | > 1 µg/mL
B4 | 0.57 µg/mL
B5 | > 1 µg/mL
B6 | 0.175 µg/mL
B7 | 0.015 µg/mL

The binders below were run against SARS-CoV-2 Delta (B.1.617.2) spike RBD (assay: ELISA binding EC50; higher = weaker binding; ELISA of recombinant human antibody on coated antigen, from 10 µg/ml in fourfold dilutions; four-parameter fit.).

Binder | ELISA binding EC50
B1 | 0.0124 µg/mL
B2 | 0.00913 µg/mL
B3 | 0.056 µg/mL
B4 | 0.00852 µg/mL
B5 | 0.0125 µg/mL
B6 | 0.00189 µg/mL
B7 | 0.143 µg/mL

Each binder was assayed against SARS-CoV-2 Omicron BA.1 spike protein in the same assay as above.

Binder | ELISA binding EC50
B1 | 0.145 µg/mL
B2 | 0.00536 µg/mL
B3 | 0.0224 µg/mL
B4 | 0.0347 µg/mL
B5 | 0.00763 µg/mL
B6 | 0.0345 µg/mL
B7 | 0.00251 µg/mL

Each binder was assayed against SARS-CoV-2 Wuhan-Hu-1 spike receptor-binding domain in the same assay as above.

Binder | ELISA binding EC50
B1 | 0.00186 µg/mL
B2 | 0.00291 µg/mL
B3 | 0.00779 µg/mL
B4 | 0.0029 µg/mL
B5 | 0.00402 µg/mL
B6 | 0.00991 µg/mL
B7 | 0.00271 µg/mL
